Here are results for 81 compounds from ChEMBL document CHEMBL1201862, “PubChem BioAssay data set” (2004).

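96-well plates; 48 h exposure; 5 concentrations. Endpoints by linear interpolation between flanking doses. Not reached: highest tested concentration assigned. The concentration for 50% growth inhibition is given as GI50.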 Activity calls are given as the source filed them. Rule as the data show it: active = GI50 up to about 1.1 µM and inactive = higher. Where only a bound is given, the exact number is not on record here.

For this assay, the system named is NCI-H322M. Kind of assay: inhibition of tumour cell growth, NCI panel, 48 h.
Take `Nc1ncnc2c1ncn2CCCCC(=O)O`: the GI50 is inactive: > 100 µM.
To `O=C(NN1C(=O)C(Cl)C1c1ccccc1Cl)c1ccccc1O` (stereo unspecified) belongs inactive: > 100 µM; to `N=C(Nc1nc(-c2ccccn2)cc2ccccc12)c1ccccn1`, active: 0.0293 µM; to `CC#Cc1cc2c(cc1O)CC[C@@H]1[C@@H]2CC[C@]2(C)[C@@H](O)CC[C@@H]12`, inactive: 4.08 µM.
For `COc1cccc(C2c3cc4c(cc3OC(N3CCCC3)C2C)OCO4)c1O` (stereo unspecified), the GI50 is inactive: 7.48 µM.
As for `CCOc1ccc2c(c1)C(/C(C(Cl)=C(Cl)Cl)=[N+](/[O-])OC(=O)c1ccccc1)=N2`, the GI50 was inactive: > 100 µM.
In the case of `CN1CCN(Cc2ccccc2)CC1CC#N` (stereo unspecified), the GI50 is inactive: > 100 µM.
To `Cc1cccc2c(O)cc(=O)oc12` belongs inactive: > 100 µM.
As to `O=C(c1ccc2c3c(ccc(C(=O)C(F)(F)F)c13)CC2)C(F)(F)F`, the GI50 was inactive: 27.8 µM.
Regarding `COC1/C=C(C)/C=C/C(C)/C=C/C(=O)OC(/C(C)=C/C=C(\C)CNC(=O)[C@H](CO)NC=O)C(C)/C=C/C=C/C(OC)CC/C=C(C)/C=C/C1` (stereo partly specified), the GI50 was active: 0.0542 µM.
In the case of `COc1ccc(/N=N/c2c(-c3ccccc3)nn(C(=O)CC(=O)Nc3cccc(Cl)c3)c2-c2ccccc2)cc1`, the GI50 was inactive: > 100 µM.
On to `COc1ccc(NC(=O)C(=O)C2CNC(=O)NC2=O)c(OC)c1` (stereo unspecified), for which the GI50 is inactive: > 100 µM.
As for `N#Cc1nc(-c2ccccc2O)oc1N`, the GI50 is inactive: 92.5 µM.
As for `[N-]=[N+]=NI1OC(=O)c2ccccc21`, the GI50 was inactive: > 100 µM.
As for `CSCCC(NC(c1ccccc1)c1ccccc1)[PH](=O)O` (stereo unspecified), the GI50 was inactive: > 100 µM.
Take `CS/C(=C(\S)c1ccccc1)c1ccccc1`: the GI50 was inactive: > 100 µM.
Take `COc1cc(CN(C)N2C(=O)c3cccc4cc([N+](=O)[O-])cc(c34)C2=O)cc(OC)c1OC`: the GI50 was inactive: > 100 µM.
Consider `CC1=NN(c2cccc(Cl)c2)C2(C1=Cc1ccc(O)cc1)C(Cl)C(=O)N2c1nc2ccccc2s1` (stereo unspecified), for which the GI50 is inactive: 22.6 µM.
`c1ccc(SC2(Sc3ccccc3)CCCC2)cc1`: the GI50 was inactive: > 100 µM.
Regarding `CC(=O)OCC1OC(n2c3c(cc(C#N)c2=S)CCCCC3)C(OC(C)=O)C(OC(C)=O)C1OC(C)=O` (stereo unspecified), the GI50 is inactive: > 100 µM.
Take `CN(C)CCNC(=O)c1cccc(CO)c1[N+](=O)[O-]`: the GI50 is inactive: > 100 µM.
For `CN(C)c1nncc2[nH]nnc12`, the GI50 was inactive: > 100 µM.
`Cn1c(=O)c2c(no[n+]2[O-])n(C)c1=O`: the GI50 was inactive: > 100 µM.
Regarding `N=C(N)NCC[C@H](NC(=O)OCCCCCn1ccc(=O)[nH]c1=O)C(=O)O`, the GI50 was inactive: > 100 µM.
To `O=C(c1ccccc1)[C@H]1Nc2ccc(Cl)cc2[C@H]2OCCC[C@@H]12` belongs inactive: 22.9 µM.
For `c1ccc(Nc2nnc(CSc3nc(-c4ccccc4)c(-c4ccccc4)[nH]3)s2)cc1`, the GI50 is inactive: 31.1 µM.
In the case of `O=C1NC(=O)C(C(=O)C(=O)Nc2cc(Cl)ccc2Cl)C(=O)N1`, the GI50 was inactive: > 100 µM.
Take `COc1ccc2[nH]c(CCNC(=O)c3cc([N+](=O)[O-])cc([N+](=O)[O-])c3)cc2c1`: the GI50 is inactive: > 100 µM.
With `CN(CCCCN1CCCC1)CCCN(C)C(=O)Cc1ccc(Cl)c(Cl)c1`, the GI50 was inactive: 16.4 µM.
To `O=S1(=O)OCCOS(=O)(=O)C1Cc1ccccc1` belongs inactive: 68.5 µM.
Consider `COC(=O)c1cc2c(o1)Sc1ccccc1NC2=O`, for which the GI50 is inactive: > 100 µM.
To `CN(C)c1ccc(/C=C2\C[C@H]3[C@@H]4CC=C5C[C@@H](O)CC[C@]5(C)[C@H]4CC[C@]3(C)[C@H]2O)cc1` belongs inactive: 12.5 µM; to `CN(C)CCC(/C=C/c1ccccc1)=N\Nc1c(F)c(F)c(F)c(F)c1F`, inactive: > 100 µM.
For `c1cc2nnc1SCCSCCCSCCS2`, the GI50 is inactive: > 100 µM.
For the compound `COC(=O)/C=C/C1(O)C=CC(=O)C=C1`, the GI50 was inactive: 15 µM.
Turning to `CCCCCCCCCCCCCCCCCCNc1ccn(C2OC(CO)C(O)C2O)c(=O)n1` (stereo unspecified), the GI50 is inactive: > 100 µM.
For the compound `CC(C)(C)CC(C)(C)c1cc2c(O)c(c1)Cc1cc(C(C)(C)CC(C)(C)C)cc(c1O)Cc1cc(C(C)(C)CC(C)(C)C)cc(c1O)Cc1cc(C(C)(C)CC(C)(C)C)cc(c1O)Cc1cc(C(C)(C)CC(C)(C)C)cc(c1O)Cc1cc(C(C)(C)CC(C)(C)C)cc(c1O)C2`, the GI50 is inactive: > 100 µM.
For the compound `C#CCn1c2c(c3ccccc3c1=O)C(=O)c1ccccc1-2`, the GI50 was inactive: 17.8 µM.
For the compound `O=C(Nc1cccc(NC(=O)C(=O)C2CCC3=C(Sc4ccccc4N3)C2=O)n1)C(=O)C1CCC2=C(Sc3ccccc3N2)C1=O` (stereo unspecified), the GI50 was inactive: > 100 µM.
As to `C#CCC(O)c1ccc(OC)c(OCc2ccccc2)c1` (stereo unspecified), the GI50 is inactive: > 100 µM.
As to `Cc1ccc(S(=O)(=O)CNC(=S)CCCC(=S)NCS(=O)(=O)c2ccc(C)cc2)cc1`, the GI50 was inactive: > 100 µM.
Regarding `COc1ccc(/C(Cl)=C/c2cc(OC)ccc2OC)cc1`, the GI50 is inactive: > 100 µM.
For the compound `O=[N+]([O-])c1ccc(Cl)c(C2CC(c3cccc4ccccc34)=Nc3ccccc3[S+]2[O-])c1` (stereo unspecified), the GI50 is inactive: 33.3 µM.
Take `CCN(CC)C(=S)SS(=O)(=O)c1ccc(Cl)cc1`: the GI50 is inactive: > 100 µM.
To `COC(=O)C1=C(C)NC(C)=C(C(=O)OC)C1c1cccc(N=O)c1` belongs inactive: > 100 µM.
For `O=C1OC2c3ccccc3C(=O)C2(c2ccccc2)N1c1ccccc1` (stereo unspecified), the GI50 was inactive: > 200 µM.
In the case of `COc1ccc2c(c1)O[C@@H]1[C@@H](OC3OC(CO)C(O)C(O)C3O)Oc3cc(OC)c(OC)cc3[C@]1(O)C2=O` (stereo partly specified), the GI50 is inactive: > 100 µM.
Take `COc1ccc2c(c1)C1=NCCN(CCN(C)C)c3ccc([N+](=O)[O-])c(c31)N2`: the GI50 is active: 0.307 µM.
To `CN(CC(=O)O)c1ncc2c(n1)-c1ccccc1SC2` belongs inactive: > 100 µM; to `Cn1cc(S(=O)(=O)NC(=O)Nc2ccc(Cl)cc2)c(=O)c2ccc(F)cc21`, inactive: > 100 µM; to `CC(C)(C)c1cc(OCc2nnc3sc(Cc4ccccc4)nn23)c(Cl)cc1OCc1nnc2sc(Cc3ccccc3)nn12`, inactive: 44.6 µM.
In the case of `Nc1c2cc3ccc2nc2ccc(cc12)OCCOCCOCCOCCOCCOCCO3`, the GI50 was inactive: > 10 µM.
For `CSc1nc2c(c(N(C)C)n1)C(O)n1c(nc3ccccc31)S2` (stereo unspecified), the GI50 is inactive: 98.9 µM.
With `CC(=C(C(N)=O)C(N)=O)C1C=C(c2cccs2)CC(c2ccc(Cl)cc2)=C1O` (stereo unspecified), the GI50 was inactive: > 100 µM.
`COC(=O)CC(c1ccccc1)C(C#N)(OP1(=O)OC(c2ccccc2)C(C)N1C)c1ccccc1` (stereo unspecified): the GI50 was inactive: > 100 µM.
Consider `CC1(C)O[C@@H]2[C@@H]3OC(=O)C[C@@H]3[C@@H](COCc3ccccc3)[C@@H]2O1`, for which the GI50 was inactive: > 100 µM.
To `C[C@]12CC[C@H]3[C@@H](CCC4=CC(=O)C=C[C@@]43O)[C@@H]1CCC2=O` belongs inactive: 68.4 µM.
Take `Nc1c2c(nc3cc(F)c(F)cc13)CCC2`: the GI50 was inactive: 44.3 µM.
On to `CC1(C)C2CCC(O)(C2)C1N` (stereo unspecified), for which the GI50 is inactive: > 100 µM.
Turning to `C/C(=N/NC(=S)NCCc1ccccn1)c1cnccn1`, the GI50 was inactive: 17.6 µM.
For `O=C(/C=C/NC(=O)OCc1ccccc1)OCc1ccccc1`, the GI50 was inactive: > 100 µM.
To `COc1cccc2c(=O)c3c(n(C)c12)OC(C(C)C)C3` (stereo unspecified) belongs inactive: > 100 µM; to `CCOc1ccc(NC(=O)C(=O)Nn2c(N)nnc2N)cc1`, inactive: > 100 µM; to `C=C/C=C/NC(=O)OCc1ccccc1`, inactive: > 100 µM.
For `Cc1cn(C2CC(N/C(=N/C#N)NCC3OC(n4cnc5c(N)ncnc54)CC3O)C(CO)O2)c(=O)[nH]c1=O` (stereo unspecified), the GI50 was inactive: > 100 µM.
As for `CC(C)(C)C(=O)/C=C/c1cccc(Oc2ccccc2)c1`, the GI50 was inactive: 18 µM.
Turning to `COc1cc2c(cc1OCCCCOc1cc(-c3ccc(F)cc3)nc(C)n1)N=C[C@@H]1CCCN1C2=O`, the GI50 was inactive: 1.26 µM.
Take `C=C(C)C1Cc2c(cc(O)c3c(=O)c4ccccc4n(C)c23)O1` (stereo unspecified): the GI50 was inactive: > 100 µM.
For the compound `O=C(CSc1nc2ccc(I)cc2c(=O)n1Cc1ccccc1)NN1C(=O)CCC1=O`, the GI50 is inactive: 55.8 µM.
As to `COCNC(=NC#N)NCOC`, the GI50 is inactive: > 100 µM.
On to `COC12CCC(C(C(=O)c3ccccc3)=C1C(=O)c1ccccc1)C(O)C2` (stereo unspecified), for which the GI50 is inactive: > 100 µM.
Take `Clc1ccc(Oc2ccc(/N=C/c3ccc(Cl)cc3Cl)cc2Cl)cc1`: the GI50 was inactive: 87.5 µM.
As to `C/C(Nc1ccc(Cl)cc1)=C1/CCOC1=O`, the GI50 was inactive: 8.75 µM.
Regarding `CC(=O)OC1CC2C(C)(C)C(=O)C=C[C@]2(C)C2CCC3(C)C(c4ccoc4)C(=O)C4OC43[C@]12C` (stereo partly specified), the GI50 is inactive: 22.8 µM.
Turning to `CC1C[C@H](C)CC(C(O)CC2CC(=O)N(Cc3ccccc3)C(=O)C2)C1O` (stereo partly specified), the GI50 was inactive: > 100 µM.
As for `COc1ccc(OC)c(-c2cc(=O)c3c(OC)c(OC)c(OC)c(OC)c3o2)c1`, the GI50 is inactive: 35.7 µM.
As for `BrCCC[P+](c1ccccc1)(c1ccccc1)c1ccccc1`, the GI50 was inactive: 73.6 µM.
`Cc1ccc(NC(=O)c2cccc([N+](=O)[O-])c2O)c(C)c1`: the GI50 is inactive: 19.8 µM.
`C=C1CC[C@@H]2C(C)(C)CCC[C@@]2(C)[C@@H]1Cc1cc(O)ccc1O`: the GI50 was inactive: 11.4 µM.
Turning to `O=C1Nc2ccc(Br)cc2/C1=N/NC(=S)Nc1ccc([N+](=O)[O-])cc1`, the GI50 was inactive: 7.11 µM.
With `COc1c(OC)c(OC)c(-c2cc(=O)c3c(OC)c(OC)c(OC)c(OC)c3o2)c(OC)c1OC`, the GI50 was inactive: 35.4 µM.
